Results published in PubChem BioAssay (NCI).
Where a structure was tested more than once in an assay, its records may differ in their call.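 For each line, cells grew in 96-well plates with the test compound present at a single concentration for 48 hours.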 The source holds more than one record for some entries. Only these are listed. An entry can have further records. For some of these results: The screen tested this drug many times, at its own concentration, as given; each value is one run. Additions like (4×) give the number of equal values in this list. Some values that stand alone complete this part of the results. Activity calls are given as the source filed them. How the source made its calls: active means growth percent below 10; inactive means the rest.

Legend:
SNB-19 CNS = experiment: NCI-60 one-dose screen, 48 h (100 = growth as untreated, 0 = no growth, -100 = all killed)
U251 CNS = experiment: as above; conditions: 0.25 µM

Compound: COc1cccc2c1C(=O)c1c(O)c3c(c(O)c1C2=O)C[C@@](O)(C(=O)CO)C[C@@H]3OC1CC(N)C(O)C(C)O1 (some centres not stated)
- growth (SNB-19 CNS; 0.25 µM, runs of 2021): inactive: 12.8 (2×), 18.9, 15.3 (2×), 13.9 (2×), 14.1, 13.2 (2×), 13.6, 14.4, 14 (2×), 10.3, 10.2, 11, 11.8 (2×), 13.1 (2×), 20.9, 22.2, 17.3, 23.6, 27.9, 21.9, 21.3, 20.7 (2×), 16, 17.8, 18.3, 17.2, 18, 15.4, 14.9, 16.6 (2×), 20.2, 21.8, 11.6, 17.6%
- growth (SNB-19 CNS; 0.25 µM, runs of 2022): active: 0.206, 0.296, -2.74, 8.28, 0.172, 9.65% and inactive: 10.8, 10.2, 10.3, 13.7, 16.1 (2×), 13.3, 21.5, 43, 37.6, 58.2, 44.9, 54.3, 13.1, 11.3, 12.8%
- growth (SNB-19 CNS; 25 µM, runs of 1991): active: -24.1, -21.6, -18.4, -22.4, -24.8, -14.5, -19, -23.5, 4.08, -14.1, 1.14, 4.31, -18.8, 0.749, -25.2, -14, -7.55, -7.1, -19.6%
- growth (SNB-19 CNS; 25 µM, runs of 1992): active: -14.7, -18 (2×), -23.8 (2×), -32.5 (2×), 2.44, -5.47, -29, -44.4, -24.8 (2×), -22.9 (2×), -9.31, -25.8, -22.8, -36.2, -15.1 (2×), -12.3 (2×), -4.22, 1.12, -4.31, -15.2, -26, -6.53, -38.7, -36.8 (2×), -28.6, -20.2, -26.6, 8.07, -11.4, -5.06, -20.3 (2×), -35.2, -4.43, -13.5, -5.45, -9.53, -5.91, -13.3, -16.9, -3.8, -34.3, -29.4, -17, -1.4, -3.86, -20.6 (2×), -23.5, -7.16, -12.6, -6.89, -24, -11.8 (2×), -35.7, -25.7, -27.1 (2×), -40.5, -23.9, -12.9, -36.6, -6.75, -10.8, -30.2, -28.5, -26.7, -24.9, -31.6, -21.2 (2×), -8.19, -18.7, -33.8, -14.1, -13.1, 0.472, -53.1, -9.64, -24.2, 4.7, -12.8, -30.5, -23.2, -30.9, -22.1, -5.41, -19.5, -15.4, -18.8, -28.9, -35.4, -33.7, -30.7, -17.9, 3.47, -29.3, 8.1, -18.4, -27, -33.9, -6.36, 0.855, -19.1, -31.2, -53.6, -16.1, -16.4, -24.6, -45.9, -41.8% and inactive: 23.6%, 106%
- growth (SNB-19 CNS; 25 µM, runs of 1993): active: -9.72, -27.4 (2×), -29, -25.3, -19.9, -18.9, -25.8, -30.5 (2×), -39.8, -18.6 (2×), -17.6, -31.1, -8.29, 0.938, -34.8, -60.6, -19.2, -21.6, -30.8, -6.9, -9.8, -2.89, -34.4, -24.2, -34, -12.2, -23.7, -15.7, -39.7, -26.8, -10, -49.3, 5.06, -19.6, -22.1, -25.5, -11.8, -11.2, -14, -25.6, -41.6, -19.5, -23.2, 5.92, -30.9, -25.1%
- growth (SNB-19 CNS; 25 µM, runs of 1994): active: -35.6, -30.2, -9.42, -20.6 (2×), -18, -33.5, -17.9, 1.94, -12.7, -51.1, -33.6, -0.412, -21.1, -28.5, -0.738, -7.95, -17.3, -7.08, -46.3, -32.6, -33.9, -40.6, -32.5, -34.2, -40.4, -34.1, -35.3, 0.834, -37.7, -26.5%
- growth (SNB-19 CNS; 25 µM, runs of 1995): active: -10.3, -29.7, -9.35, -27.9, -13.2, 1.49, -7.71, -13.3, -17.9, -10.4, -17.8 (2×), -30.7, -5.24, -24.6, -8.82, -11.1, -12.1, -20.2, -18.8, -43.2, -20.6, -32, -20, -18.6, 0.469, -24.4, -19.3, -40.8, -30.1, -35.7, -3.21, -5.79, 7.78, -15, -2.84% and inactive: 23.7%
- growth (SNB-19 CNS; 25 µM, runs of 1996): active: 1.67, -26.8, 0.917, 0.144, -14.8, -14, -5.76, 3.62, -7.49, -28.2, -25.2, -39.4, 1.68, -31.4, -13.7, -11.2, -53.8, -44.7, 6.64, -22.3, -20.6, -18.3, -19.3, 9.25, -13, -28, -22.4 (2×), -22.9, 7.47, 1.4, -25.8, -19.7, -20.3, -11.1 (3×), -29.1 (2×), -13.4, -48.6, -37.7, -13.5, -20.1, -4.84, -8.98, -32.8, -15.8, -25.5, -21.1, 5.82, -13.8, -37.1% and inactive: 10.5, 16.6, 64, 26.3, 12.8%
- growth (SNB-19 CNS; 25 µM, runs of 1997): active: 5.98, -27.6 (2×), -8.47, 6.62, -10.4, -40.3, -18.3 (2×), -40.6, -12.4, -15.1 (2×), 7.47, -34.3, -7.63, -5.89, -5.88, -28, -24.4, -49.3, 7.78, -19, -20.7, -30.3, -6.8, -19.5, -10.8, -21.2, -30.8, 3.19, -13.9, -23.9, -20.1, -11.2, 7.61, -21.3, -10.9, -15.8, -23.1, -11.1, -22.1, -36.4% and inactive: 10.3%
- growth (SNB-19 CNS; 25 µM, runs of 1998): active: -11.4, -15.1, -16.8 (2×), -54.1, -7.66, -28.5, -30.1, -22.2, -40.7, -55.5, -33.1, -49.6, -20.7, -52.3, -31, -29, -33.2, -40.1, -29.6, 9.07, -41.4, -7.18, -20.4, -42.7, -27.1%
- growth (SNB-19 CNS; 25 µM, runs of 1999): active: -20.1, -7.31, -56.1, -9.82, -20.8, -100 (3×), 3.72, -62.9, -69, 0.187, 8.19, -34.9, -98.4, -54.5, -68.5% and inactive: 27.2%
- growth (SNB-19 CNS; 25 µM, runs of 2000): active: 4.39, -100, -6.87, -50.4%
- growth (U251 CNS; runs of 2006): inactive: 14.3%
- growth (U251 CNS; runs of 2007): inactive: 15.6 (2×), 24.4, 15.2, 19.4, 18.7, 14.1, 16.4, 33.3, 15.3 (2×), 17.5, 13.5, 17.1 (2×), 13, 24.3, 20.5, 19.8, 16.9 (2×), 21.1, 21.4, 18, 15.1, 26.2, 14.9 (2×), 24.9, 10.8, 16.7, 22.2, 22.5% and active: 1.71%
- growth (U251 CNS; runs of 2008): inactive: 21, 18.3, 15.3, 17.6, 19.4, 15.7, 12.8, 15.1, 25.9, 18.4, 16.3, 11.3, 12, 11.1, 12.4, 93.6, 13.8, 10.5, 10.2, 11.8, 19.7, 19.8, 13, 15.5, 10.3, 20.9, 15.2% and active: -14, 7.18, 3.31, -2.46, -9.54, 3.04, 3.18, 6.87, 8.15, 0.151, 8.02 (2×), -10.9, -0.736, -0.0936, 8.46, 9.95, -18, 9.7%
- growth (U251 CNS; runs of 2009): active: 9.58, 5.38, 8.84, 4.89, -8.09, 8.48, 6.76, 7.06, 5.59, 2.14, 8.6, 3.66% and inactive: 16.4, 13.7, 20.3, 18, 20.6, 24.4, 18.7, 10.2 (2×), 14.5, 10.7, 13.6, 14.3 (3×), 18.8, 16.7, 15.5, 13.5, 13.9, 16.3, 15.2, 14.1, 21.6, 12.7, 18.2, 14.8, 19.3, 12.9, 10.1, 10.5, 22.3, 24, 11.8, 11.1, 17.6 (2×), 19.5, 11.2, 19.2 (2×), 30.7, 16.9, 15.3, 18.4%
- growth (U251 CNS; runs of 2010): inactive: 16.7 (2×), 18.7, 15, 16.8 (2×), 18 (2×), 23.8, 17.1 (2×), 23.6, 29.1, 19.5, 22.1, 15.7 (3×), 22, 10.3, 13.8, 21.9, 14.2, 14.3 (2×), 13.9, 16.9, 19.4, 15.5, 16, 23.1, 18.3, 17, 19, 20.5, 18.1, 12.4, 21.1, 19.8, 20.1, 13.5% and active: 9.03, 8.01, 4.92, 3.75, 9.17, 1.32%
- growth (U251 CNS; runs of 2011): inactive: 15.2, 14.8, 23.5, 23.9 (2×), 19.8, 21.3, 20.9, 25, 29, 22.2, 22.4, 19, 23.1, 22.9, 26, 18.1, 23.8, 19.3, 18.4 (2×), 14.5 (3×), 20 (2×), 21.4, 13.7, 18.2, 16.8, 17.6, 16.3, 10.7, 12.1, 11.7, 24, 12.9, 10.9, 11.9, 16, 18, 12.3, 17.5, 15.7, 19.7, 20.4% and active: 6.36, 8.48, -0.104, 0.808, 7.89%
- growth (U251 CNS; runs of 2012): inactive: 20.6, 15.6, 12.1, 19, 21.3 (2×), 27.3, 12.3, 15.2, 16.9, 17.5, 13.8, 13.9 (3×), 10.5 (2×), 17.1, 10.7, 18.9, 19.5 (2×), 22, 23.5, 22.9 (2×), 19.4, 22.3, 25.1 (2×), 20.5, 20.1, 21.9 (3×), 20.7, 16.7 (2×), 26.7, 18, 26.9, 22.5, 27.6, 27, 23.8, 29.3, 31.4, 32, 14.7 (2×), 10.8, 15.1, 14, 15.3, 14.9% and active: 9.36%, 5.68%
- growth (U251 CNS; runs of 2013): inactive: 19.4, 16.8, 17.6, 16.9 (2×), 22 (2×), 24, 27.9, 14.7, 13, 13.7, 23, 29.3, 19.6 (2×), 31.1, 30.8, 22.5, 27.7, 26.7 (2×), 26.5, 27.5, 26.2, 26.1, 18.4, 20.1 (2×), 23.9, 19.3 (2×), 26.4 (2×), 25.5 (2×), 27.3, 25.6, 28, 15.3, 20.2, 18.2, 22.8, 19.5, 21.3, 21.4, 24.7, 24.1, 19.8, 23.3, 25, 30.7, 16.4, 22.1, 11.4, 21.1, 24.6, 10.6, 12.9, 21.5, 15.6 (2×), 14.2, 19.7% and active: 1.09%
- growth (U251 CNS; runs of 2014): inactive: 19.6, 22.4 (2×), 14.1 (2×), 14.3, 14.5 (2×), 15.1 (2×), 13.5 (2×), 11.2, 15, 17, 20.6, 12.1, 11.4, 15.5, 18.4, 17.6, 19.5, 17.5, 22.7, 18.1, 18.7 (2×), 22.1, 15.6 (2×), 14.8, 16.7, 17.1, 14, 20.9, 19.2, 22.9 (2×), 20, 19.8, 21, 14.9, 12.8, 15.3, 13.9, 11.3, 13.2, 10.1, 14.2, 21.1, 13, 19.7, 16, 12.9, 16.9, 11% and active: 5.32, 1.39, -1.09, 6.68, 9.64, -3.03, -0.0407, -0.914, 0.405, 3.99, 9.46, 7.61, 5.27, 5.65, 8.82, 7.7%
- growth (U251 CNS; runs of 2015): inactive: 11.2 (2×), 20.4, 13.1 (2×), 13.7, 15.6, 14.1, 10.2 (2×), 11.8, 17.1, 13.5 (2×), 15.3, 16, 10.8, 12, 14.8 (2×), 15.2 (3×), 15, 11, 18, 11.7 (4×), 15.7, 14.3, 12.8 (2×), 11.6 (2×), 15.5 (2×), 14.5 (3×), 12.7 (3×), 13, 21.3, 14, 13.2, 21, 17.5, 16.9, 16.7, 19.2, 16.4, 19.8, 10.9, 12.9, 11.1% and active: 3.91, 9.84, 9.73, 7.43, 9.26, 6.07, 6.88, 8.5, 3.53, 7.45, 7, 8.81, 9.33%
